# Measured values as given in PubChem BioAssay AID889 (National Center for Advancing Translational Sciences (NCATS), 2007).
# Among all 75,000 compounds or so, about 15 (0.02%) were called active. This list was built around the results that the source calls inconclusive (neither active nor inactive); the mix of calls is not that of the screen. Calls come from the whole dose curve; as a rule, active = well fitted inhibition curve with a large enough effect in the main read-out, with a control signal flat (not every such curve was filed as active); inconclusive = small, poorly fitted or top-dose-only effect, or a change in a side signal; inactive = flat fitted curve, though single readings scatter. Potencies beside an inconclusive call are fits to weak or partial responses and may not hold up. “Side channel” marks fits to a control or component signal instead of the main read-out.
# Molecular target: Caspase-7 (Homo sapiens) (UniProt P55210)
# Experiment: qHTS Assay for Allosteric/Competitive Inhibitors of Caspase-7; for activity change, negative = inhibition: % of control where 0% means no effect
# Conditions: recombinant caspase-7, Ac-DEVD-AFC fluorescence rate; activity change, negative = inhibition: at 57.5 µM (top of the series) unless noted
# Potency is the fitted concentration of half-maximal effect; tags give direction and shape of the fitted curve or compound fluorescence and quenching.
# UniProt P55210, sequence (P55210 whole entry, looked up): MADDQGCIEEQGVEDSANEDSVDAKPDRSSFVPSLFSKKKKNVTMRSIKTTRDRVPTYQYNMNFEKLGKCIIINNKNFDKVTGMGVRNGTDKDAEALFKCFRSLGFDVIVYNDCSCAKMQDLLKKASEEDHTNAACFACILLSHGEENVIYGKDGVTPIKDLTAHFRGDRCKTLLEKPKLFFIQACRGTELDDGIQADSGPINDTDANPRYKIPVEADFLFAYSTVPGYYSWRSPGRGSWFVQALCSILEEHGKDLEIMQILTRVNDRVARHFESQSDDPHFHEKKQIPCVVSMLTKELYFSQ
Structure (SMILES),Potency,"activity change, negative = inhibition"
N#CCCn1c2ccccc2c2nc3ccccc3nc21,"inconclusive: 31.6 µM [inhibitor, single point]",
O=C(O)C1CC(c2ccccc2F)=NO1 (stereo not given),inactive,
N#Cc1c(NC(=O)c2ccc(Br)o2)n(-c2ccccc2)c2nc3ccccc3nc12,"inconclusive: 25.1 µM [fluorescent, partial curve]",
Cc1ccccc1NS(=O)(=O)c1cccc(-c2nnc(-c3ccccc3)o2)c1,inactive,
CCNc1nc(C)nc2c1oc1ccccc12,inactive,
CC(=O)c1ccccc1Oc1nc(CN2CCOCC2)nc2scc(-c3cccs3)c12,"inconclusive: 25.1 µM [inhibitor, single point]",
O=c1oc2ccccc2n1CCn1c2ccccc2c2nc3ccccc3nc21,inactive,
O=C(c1ccc(=O)oc1)N1CCCc2ccccc21,"inconclusive: 25.1 µM [inhibitor, partial curve]",
O=c1/c(=C\c2ccc3c(c2)OCO3)sc2n1CCCN=2,inactive,
O=C(OCC(=O)c1c[nH]c2ccccc12)c1ccco1,inactive,
O=C(NC1CCCCC1)c1cnn2c(C(F)(F)F)cc(-c3ccco3)nc12,"inconclusive: 25.1 µM [fluorescent, partial curve]",
COc1cccc(Cn2c(=O)c(C)nc3cnc(N(C)C)nc32)c1,"inconclusive: 25.1 µM [inhibitor, partial curve]",
Cn1c(-c2ccc(F)cc2)cnc1SCC(=O)Nc1ccccc1N1CCOCC1,inactive,
COC(=O)CSc1nnc(-c2cccs2)n1-c1ccc(Cl)cc1,inactive,
COc1ccc(COC(=O)N/N=C2/C[C@@H](O)[C@@H](O)[C@@H]3[C@@H]4C(=O)N(Cc5ccc6c(c5)OCO6)C(=O)[C@H]4CC[C@@H]23)cc1,,inactive: 0.0523% [at 11.5 µM]
CCCCc1c(C)nn(-c2nnc3c4ccccc4n(CC)c3n2)c1C,inactive,
CCNc1ncc2nc(-c3ccc(OC)cc3)c(=O)n(Cc3cccs3)c2n1,"inconclusive: 1.58 µM [fluorescent, side channel, full curve]",
COCCn1c(=O)c(-c2ccc(OC)cc2)nc2cnc(N3CCNCC3)nc21,"inconclusive: 12.6 µM [fluorescent, side channel, partial curve]",
COc1ccc2c(c1)OCC1=C2CCC2(C)C(=O)CC=C12 (stereo not given),"inconclusive: 25.1 µM [fluorescent, partial curve]",
COc1ccccc1OCCn1cc(C(=O)c2ccco2)c2ccccc21,inactive,
CCc1cc2c(CN3CCN(CC)CC3)cc(=O)oc2cc1O,"inconclusive: 12.6 µM [fluorescent, side channel, partial curve]",
CC(C)(C)N1C(=O)[C@H]2[C@H]3[C@H](O)[C@H](O)C/C(=N/OC[C@@H](O)COCc4ccco4)[C@@H]3CC[C@@H]2C1=O,,inactive: 1.34% [at 11.5 µM]

Structure (SMILES),Potency,"activity change, negative = inhibition"
COC(=O)C1=C(C)NC2=C(C(=O)CC(C)(C)C2)C1c1cccc(C)n1 (stereo not given),"inconclusive: 12.6 µM [fluorescent, partial curve]",
CCOC(=O)c1cc2c(=O)n3ccccc3nc2n(CCOC)c1=NC(=O)c1ccncc1,"inconclusive: 12.6 µM [fluorescent, side channel, partial curve]",
Cc1ccc2[nH]c3c(c2c1)CN(C(=O)CN1CCN(c2cccc(C)c2C)CC1)CC3,"inconclusive: 12.6 µM [inhibitor, partial curve]",
COCCn1c(=O)c(-c2ccc(Cl)cc2)nc2cncnc21,"inconclusive: 25.1 µM [inhibitor, partial curve]",
c1ccc2nc(N3CCCC3)c(N3CCCC3)nc2c1,"inconclusive: 31.6 µM [fluorescent, side channel, single point]",
O=c1c(-c2cc(F)cc(F)c2)nc2cnc(N3CCNCC3)nc2n1Cc1cccs1,"inconclusive: 15.8 µM [fluorescent, side channel, partial curve]",
CC(C)(C)NC(=O)Cn1nnc(-c2cccs2)n1,"inconclusive: 10 µM [inhibitor, partial curve]",
N#CC1=C(N)Oc2cc3c(cc2C1c1ccc(Cl)cc1)OCO3 (stereo not given),"inconclusive: 31.6 µM [inhibitor, single point]",
CCn1nc(C)c(/C=C2\CCCC3=C2OC(N)=C(C#N)C3c2c(C)nn(CC)c2C)c1C (stereo not given),"inconclusive: 25.1 µM [fluorescent, single point]",
CCCC(=O)Nc1nn(C)c2nc3cc(C)ccc3cc12,"inconclusive: 25.1 µM [fluorescent, partial curve]",
COC(=O)c1c(N)n(-c2cc(OC)cc(OC)c2)c2nc3ccccc3nc12,"inconclusive: 6.31 µM [inhibitor, partial curve]",
Cc1cc(C)c2c(n1)nn1c(NCCOCCO)cc(C)nc21,"inconclusive: 15.8 µM [fluorescent, side channel, partial curve]",
CCOC(=O)[C@]1(CC(=O)O)CCCC1=O,,inactive: 0.467% [at 11.5 µM]
O=C(O)c1cccc(N=Nc2c(S(=O)(=O)O)ccc3c2C(=O)c2ccccc2C3=O)c1O,,inactive: -7.82% [at 11.5 µM]
Cc1cnc(CNc2cc(-c3ccoc3)ncn2)cn1,"inconclusive: 25.1 µM [inhibitor, single point]",
CN(C)[C@@H]1C(=O)C(C(N)=O)=C(O)[C@]2(O)C(=O)C3=C(O)c4c(O)ccc(Cl)c4[C@H](O)[C@H]3C[C@@H]12,"inconclusive: 20 µM [inhibitor, partial curve]",
O=P(O)(O)c1ccccc1OCCOCCOc1ccccc1P(=O)(O)O,inactive,
O=C(NC1CCCCC1)C(c1ccco1)N(Cc1cccnc1)C(=O)C1COc2ccccc2O1 (stereo not given),inactive,
Oc1c(C(O)(c2ccccc2)c2ccc3ccccc3c2O)ccc2ccccc12,,inactive: -2.64% [at 11.5 µM]
Cc1ccc(-n2nc3ccc(N)cc3n2)cc1,"inconclusive: 12.6 µM [fluorescent, side channel, partial curve]",
CCOC(=O)c1c(N)n(CCOC(=O)c2cccs2)c2nc3ccccc3nc12,"inconclusive: 15.8 µM [fluorescent, side channel, partial curve]",
O=c1c(CCc2ccccc2)nc2cnc(N3CCNCC3)nc2n1Cc1cccs1,"inconclusive: 20 µM [inhibitor, partial curve]",

Structure (SMILES),Potency,"activity change, negative = inhibition"
Cn1nc(-c2ccccc2)c2nc3ccccc3nc21,"inconclusive: 3.98 µM [fluorescent, full curve]",
CS(=O)(=O)N1CCN(c2ccccc2NC(=O)c2cccs2)CC1,inactive,
CCNc1ncc2nc(-c3ccc(Cl)cc3)c(=O)n(-c3ccc(OC)cc3)c2n1,"inconclusive: 3.16 µM [fluorescent, full curve]",
CN(C)CCSc1nnc(-c2ccccc2)o1,inactive,
COc1ccc(/C=C/C(=O)c2cccs2)c(OC)c1,"inconclusive: 39.8 µM [fluorescent, partial curve]",
Cc1cccn2c(=O)c3cc(C(=O)NC4CCCC4)c(=N)n(C4CCCC4)c3nc12,"inconclusive: 1.26 µM [fluorescent, side channel, full curve]",
O=c1[nH]c(=S)[nH]c2c1CN(CCCN1CCOCC1)CN2,,inactive: 0.61% [at 11.5 µM]
O=C(c1cc2nc(-c3ccco3)cc(C(F)(F)F)n2n1)N1CCCCCC1,"inconclusive: 25.1 µM [fluorescent, partial curve]",
COc1cccc(-c2nc(Nc3ccncc3)c3ccccc3n2)c1,"inconclusive: 31.6 µM [fluorescent, single point]",
COC(=O)c1cc(=O)c(O)c2c(O)c(O)ccc2c1,"inconclusive: 25.1 µM [inhibitor, partial curve]",
O=c1c(-c2ccccc2)nc2cnc(N3CCOCC3)nc2n1C[C@H]1CCCO1,"inconclusive: 3.98 µM [fluorescent, side channel, full curve]",
COc1ccc(OC)c(NC=C2C(=O)OC3(CCCCC3)OC2=O)c1,"inconclusive: 31.6 µM [fluorescent, single point]",
Cc1cccc(CNc2ncnc3ccc(-c4ccoc4)cc23)c1,inactive,
Cc1cc(N=Cc2c(O)n(-c3ccc4c(c3)OCO4)c(=O)c3ccccc23)ccn1,"inconclusive: 25.1 µM [fluorescent, side channel, partial curve]",
Cc1cccn2c(=O)c3cc(C#N)c(=O)n(Cc4cccnc4)c3nc12,"inconclusive: 2.51 µM [fluorescent, side channel, full curve]",
CNc1nnc(-c2cc3ccccc3oc2=O)s1,"inconclusive: 15.8 µM [fluorescent, side channel, partial curve]",
O=C(NCc1cccs1)c1cc2c(s1)-c1ccccc1OC2,"inconclusive: 25.1 µM [fluorescent, partial curve]",
CO[C@H]1COC(=O)[C@H](C)NC(=O)[C@@H](C)COC(=O)C/C=C\[C@@H]1C,,inactive: -1.34% [at 11.5 µM]
CCNc1ncc2nc(-c3ccccc3)c(=O)n(C)c2n1,"inconclusive: 1.58 µM [fluorescent, side channel, full curve]",
COc1ccc2c3c(cccc13)OCC2=O,"inconclusive: 20 µM [fluorescent, side channel, partial curve]",
COCCn1c(=O)c(-c2ccc(OC)cc2)nc2cnc(Oc3cccc(Cl)c3)nc21,"inconclusive: 3.16 µM [fluorescent, full curve]",
